Some of the results follow. Single values are uncertain, as repeats are few or missing.
Legend:
Test in all cases: cell count relative to DMSO control; melanoma cells; higher = more viable cells
Conditions in all cases: library dose: standard library concentration; 72 h
SkMel30 = system: SkMel30
SkMel5 = system: SkMel5
UACC257 = system: UACC257
UACC62 = system: UACC62
WM115 = system: WM115
WM1716 = system: WM1716
WM1745 = system: WM1745
WM3526 = system: WM3526
WM3619 = system: WM3619
WM451Lu = system: WM451Lu
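Further: cells treated in 1,536-well plates, then fixed and DAPI-stained, with nuclei counted from automated high-throughput microscope images.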

| Compound | cell count (SkMel30) [%] | cell count (SkMel5) [%] | cell count (UACC257) [%] | cell count (UACC62) [%] | cell count (WM115) [%] | cell count (WM1716) [%] | cell count (WM1745) [%] | cell count (WM3526) [%] | cell count (WM3619) [%] | cell count (WM451Lu) [%] |
| --- | --- | --- | --- | --- | --- | --- | --- | --- | --- | --- |
| COc1ccc(-c2ccc3c(N4CCOCC4)nc(N4C[C@@H](C)O[C@@H](C)C4)nc3n2)cc1CO + O=C1NC(=O)/C(=C/c2ccc(-c3ccc(F)cc3O)o2)S1 [AS252424] (first compound 0.1 µM, partner dose 5 µM) | 68.7 | 68.1 | 110 | 126 | 84 | 106 | 76 | 76 | 62 | 75.9 |
| N#Cc1c(O)c2c(-c3ccc(-c4ccccc4O)cc3)csc2[nH]c1=O + COc1cc2ncnc(Nc3ccc(Oc4ccccc4)cc3)c2cc1OC [SrcI1] (first compound 10 µM, partner dose 10 µM) | 95.4 | 66.3 | 88.9 | 95 | 78.6 | 98.2 | 73.4 | 75 | 72.2 | 102 |
| COC(=O)c1sccc1S(=O)(=O)Nc1ccc(Nc2ccccc2)cc1OC + O=S(=O)(c1ccccc1)N(CC(F)(F)F)c1ccc(C(O)(C(F)(F)F)C(F)(F)F)cc1 [T0901317] (first compound 5 µM, partner dose 7 µM) | 77.3 | 61.6 | 72.2 | 77.6 | 89.1 | 78.8 | 78.4 | 65.1 | 72.8 | 82.6 |
| COC(=O)c1sccc1S(=O)(=O)Nc1ccc(Nc2ccccc2)cc1OC + O=c1cc(-c2cccc3c2Sc2ccccc2S3)oc(N2CCOCC2)c1 [KU55933] (first compound 5 µM, partner dose 5 µM) | 104 | 101 | 95.8 | 92.7 | 114 | 103 | 103 | 82.6 | 80.3 | 104 |
| Oc1cc(-c2nc(-c3ccccc3)[nH]c2-c2ccncc2)ccc1Cl + c1cc(-c2cnn3cc(-c4ccc(OCCN5CCCCC5)cc4)cnc23)ccn1 [Dorsomorphin] (first compound 1 µM, partner dose 2 µM) | 84.2 | 47.8 | 75.9 | 49.3 | 62.2 | 65.8 | 34.5 | 39.6 | 79.7 | 42.3 |
| COC(=O)c1sccc1S(=O)(=O)Nc1ccc(Nc2ccccc2)cc1OC + O=C(O)C(=O)Nc1sc2c(c1C(=O)O)CCNC2 [TCS401] (first compound 5 µM, partner dose 8.33333 µM) | 107 | 78.1 | 86.8 | 98.2 | 93.9 | 98.5 | 74.5 | 82.8 | 69.8 | 78.2 |
| Oc1cc(-c2nc(-c3ccccc3)[nH]c2-c2ccncc2)ccc1Cl + O=C1NC(=O)/C(=C/c2ccc(-c3ccc(F)cc3O)o2)S1 [AS252424] (first compound 1 µM, partner dose 5 µM) | 69.5 | 57.1 | 86.3 | 62.7 | 46.7 | 66.8 | 52.1 | 47.9 | 82.7 | 45.4 |
| COc1ccc(-c2ccc3c(N4CCOCC4)nc(N4C[C@@H](C)O[C@@H](C)C4)nc3n2)cc1CO + COc1ccc(COc2ccc(Cc3cnc(N)nc3N)cc2OC)cc1 [GW2580] (first compound 0.1 µM, partner dose 5 µM) | 80.2 | 77.1 | 92 | 151 | 88.1 | 109 | 103 | 99.5 | 66.4 | 115 |
| COc1ccc(COc2ccc(Cc3cnc(N)nc3N)cc2OC)cc1 + O=C(O)C(=O)Nc1sc2c(c1C(=O)O)CCNC2 [TCS401] (first compound 5 µM, partner dose 8.33333 µM) | 103 | 65.4 | 72.1 | 74.6 | 87.2 | 82.8 | 72.8 | 71.9 | 76.1 | 80.5 |
| COC(=O)c1sccc1S(=O)(=O)Nc1ccc(Nc2ccccc2)cc1OC + COc1ccc(COc2ccc(Cc3cnc(N)nc3N)cc2OC)cc1 [GW2580] (first compound 5 µM, partner dose 5 µM) | 84 | 79 | 83.1 | 101 | 105 | 94.9 | 103 | 90.8 | 108 | 86.8 |
| O=S(=O)(c1ccccc1)N(CC(F)(F)F)c1ccc(C(O)(C(F)(F)F)C(F)(F)F)cc1 + c1cc(-c2cnn3cc(-c4ccc(OCCN5CCCCC5)cc4)cnc23)ccn1 [Dorsomorphin] (first compound 7 µM, partner dose 2 µM) | 78 | 50.2 | 51.8 | 47 | 43.1 | 72.9 | 48.5 | 77.4 | 62.6 | 65.3 |
| CCN(CC)CCCCNc1ncc2cc(-c3cc(OC)cc(OC)c3)c(NC(=O)NC(C)(C)C)nc2n1 + COc1cc(N2CCC(N3CCN(C)CC3)CC2)ccc1Nc1ncc(Cl)c(Nc2ccccc2S(=O)(=O)C(C)C)n1 [NVP-TAE684] (first compound 0.5 µM, partner dose 0.4 µM) | 122 | 70 | 91.9 | 77.2 | 73.8 | 77.4 | 57 | 74.8 | 85.1 | 77.8 |
| COc1cc(N2CCC(N3CCN(C)CC3)CC2)ccc1Nc1ncc(Cl)c(Nc2ccccc2S(=O)(=O)C(C)C)n1 + CC(C)CCN1c2nc(Nc3cc(F)c(O)c(F)c3)ncc2N(C)C(=O)C1C [BID1870] (first compound 0.4 µM, partner dose 1 µM) | 90.6 | 46.1 | 75.7 | 62.3 | 85.5 | 79.8 | 28 | 62.5 | 64.1 | 65.6 |
| Oc1nc(-c2ccc(C(F)(F)F)cc2)nc2c1CSCC2 + CC(C)CCN1c2nc(Nc3cc(F)c(O)c(F)c3)ncc2N(C)C(=O)C1C [BID1870] (first compound 10 µM, partner dose 1 µM) | 85 | 61.4 | 69.3 | 71.6 | 92.9 | 63.5 | 70.8 | 74.2 | 85.3 | 70 |
| CCCCCCCCCCCC1=C(O)C(=O)C=C(O)C1=O [Embelin] + O=c1cc(-c2cccc3c2Sc2ccccc2S3)oc(N2CCOCC2)c1 [KU55933] (first compound 6 µM, partner dose 5 µM) | 109 | 121 | 94.8 | 103 | 86 | 87.3 | 66.4 | 67.2 | 85.1 | 89 |
| COc1cc2ncnc(Nc3ccc(Oc4ccccc4)cc3)c2cc1OC + Oc1nc(-c2ccc(C(F)(F)F)cc2)nc2c1CSCC2 [XAV939] (first compound 10 µM, partner dose 10 µM) | 103 | 54.1 | 80.7 | 52.6 | 64.7 | 71.8 | 41.7 | 56.2 | 38.6 | 93.1 |
| COc1ccc2c(c1)CCC1C2CCC2(C)C(NCCCCCCN3C(=O)C=CC3=O)CCC12 (stereo not given) + CC(C)CCN1c2nc(Nc3cc(F)c(O)c(F)c3)ncc2N(C)C(=O)C1C [BID1870] (first compound 2 µM, partner dose 1 µM) | 70.5 | 67 | 86.8 | 81.8 | 72.5 | 70.3 | 99 | 67.7 | 68.9 | 93.3 |
| COc1ccc(COc2ccc(Cc3cnc(N)nc3N)cc2OC)cc1 + O=S(=O)(c1ccccc1)N(CC(F)(F)F)c1ccc(C(O)(C(F)(F)F)C(F)(F)F)cc1 [T0901317] (first compound 5 µM, partner dose 7 µM) | 104 | 66.7 | 67.1 | 66.7 | 88.5 | 86 | 71.5 | 82.6 | 80.8 | 96.1 |
| CCN(CC)CCCCNc1ncc2cc(-c3cc(OC)cc(OC)c3)c(NC(=O)NC(C)(C)C)nc2n1 + COc1ccc(COc2ccc(Cc3cnc(N)nc3N)cc2OC)cc1 [GW2580] (first compound 0.5 µM, partner dose 5 µM) | 84.2 | 83.3 | 88.3 | 106 | 95.4 | 99.2 | 99.4 | 92.2 | 84.4 | 76.2 |
| COC(=O)c1sccc1S(=O)(=O)Nc1ccc(Nc2ccccc2)cc1OC + COc1cc(N2CCC(N3CCN(C)CC3)CC2)ccc1Nc1ncc(Cl)c(Nc2ccccc2S(=O)(=O)C(C)C)n1 [NVP-TAE684] (first compound 5 µM, partner dose 0.4 µM) | 98.2 | 62.5 | 83.1 | 63.8 | 78.4 | 77.3 | 56.3 | 69.8 | 95.9 | 80.6 |
| Oc1nc(-c2ccc(C(F)(F)F)cc2)nc2c1CSCC2 + Cn1cc(/C=C2\C(=O)Nc3cccnc32)c2ccccc21 [GW441756] (first compound 10 µM, partner dose 2 µM) | 88.9 | 80.5 | 86.2 | 69.5 | 103 | 80.3 | 64.6 | 96 | 70.1 | 113 |
| N#Cc1c(O)c2c(-c3ccc(-c4ccccc4O)cc3)csc2[nH]c1=O + Oc1nc(-c2ccc(C(F)(F)F)cc2)nc2c1CSCC2 [XAV939] (first compound 10 µM, partner dose 10 µM) | 95.5 | 89 | 85.6 | 89.6 | 112 | 102 | 88.9 | 101 | 71.1 | 93.9 |
| COc1ccc2c(c1)CCC1C2CCC2(C)C(NCCCCCCN3C(=O)C=CC3=O)CCC12 (stereo not given) + Oc1cc(-c2nc(-c3ccccc3)[nH]c2-c2ccncc2)ccc1Cl [L779450] (first compound 2 µM, partner dose 1 µM) | 86.7 | 64 | 84.8 | 48.4 | 49 | 83.2 | 62.9 | 47 | 36.2 | 63.3 |
| N#Cc1c(O)c2c(-c3ccc(-c4ccccc4O)cc3)csc2[nH]c1=O + O=C1NC(=O)/C(=C/c2ccc(-c3ccc(F)cc3O)o2)S1 [AS252424] (first compound 10 µM, partner dose 5 µM) | 104 | 83.2 | 97.8 | 98.7 | 77.5 | 98.4 | 96.9 | 90.1 | 88 | 87.5 |
